Assay results reported in the antibiotic and cytotoxicity screens of Wong et al. (2023).
Some of the results follow.

Each compound was assayed on HSkMC (human skeletal muscle cells) (assay: cytotoxicity call (relative viability < 0.9)). Conditions: 10 µM.

Row | Compound | cytotoxicity call
1 | CC1CCc2cc(F)cc3c(=O)c(C(=O)O)cn1c23 (centres undefined) | inactive
2 | C[C@@H]1CN([C@H](C)CO)C(=O)c2ccccc2-c2ccccc2CO[C@@H]1CN(C)C(=O)Nc1cccc(C(F)(F)F)c1 | inactive
3 | COc1ccc(S(=O)(=O)N2C[C@@H](O)COC[C@@H]3O[C@@H](CC(=O)NCCCN4CCOCC4)CC[C@H]32)cc1 | inactive
4 | C[C@@H]1CN([C@H](C)CO)C(=O)c2cccc(NC(=O)Nc3ccccc3)c2O[C@@H]1CN(C)C(=O)Nc1cccc2ccccc12 | inactive
5 | CCCNC(=O)Nc1ccc2c(c1)C(=O)N(C)C[C@@H](OC)[C@H](C)CN(Cc1ccc(-c3ccccn3)cc1)[C@@H](C)CO2 | inactive
6 | CN(C)CCCNC(=O)C[C@@H]1CC[C@H]2[C@@H](COc3ccc(NC(=O)c4ccc5c(c4)OCO5)cc3C(=O)N2C)O1 | inactive
7 | C[C@H](CO)N1C[C@H](C)[C@@H](CN(C)C(=O)Nc2ccc3c(c2)OCO3)Oc2c(NC(=O)c3ccc(-c4nccs4)cc3)cccc2C1=O | inactive
8 | COc1ccc(NC(=O)Nc2ccc3c(c2)C(=O)N([C@@H](C)CO)C[C@@H](C)[C@@H](CN(C)Cc2ccc(Oc4ccccc4)cc2)O3)cc1 | inactive
9 | COc1ccc(NC(=O)N(C)C[C@@H]2OCCCC[C@H](C)Oc3ccc(NC(=O)CCC(F)(F)F)cc3C(=O)N([C@@H](C)CO)C[C@@H]2C)cc1 | inactive
